# From PubChem BioAssay AID588855 (National Center for Advancing Translational Sciences (NCATS), 2011)
# Among all 410,000 compounds or so, about 5,000 (1.2%) were called active. The shares of active, inactive and inconclusive entries below differ from those in the screen. The call rests on the fitted dose curve; in most records, active means well fitted inhibition curve with a large enough effect; inconclusive means small, poorly fitted or top-dose-only effect; inactive means no such curve, though single readings can be large or run the other way. Potencies of inconclusive entries are doubtful fits and often do not repeat.
# Assay: qHTS for Inhibitors of TGF-b; further: nearly all actives have a fitted effect of over 65% in size
# Conditions: HepG2 CAGA-GFP TGF-b/SMAD3 reporter, GFP fluorescence, 18 h, TGF-beta stimulated, 500 pg/mL final; series mostly up to 46.1 µM; activity, negative = inhibition: at the top concentration
# Method in brief: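 Using HEPG2 CAGA-GFP reporter cells at 1000 cells/well, we pinned test compounds, stimulated with recombinant TGF-beta (500 pg/mL final) and measured total well GFP after 18 h.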
# On the % scale 0 is the no-effect control and ±100 the full control effect; potency means the concentration at half of the fitted maximal effect; tags describe the fitted curve by direction and shape.
SMILES,"activity, negative = inhibition",Potency
CC(=O)N1c2ccc(C)cc2C(c2ccccc2)CC1C (stereo unspecified),inactive: -28.6%,–
COc1ccc(Cn2cc(C(=O)c3ccc(Cl)cc3)c(=O)c3cc4c(cc32)OCO4)cc1,–,"inconclusive: 11.2 µM [inhibitor, single point]"
O=C(Nc1ccc(Cl)c([N+](=O)[O-])c1)c1ccco1,inactive: -11.7%,–
CCOC(=O)C1(CC2CC2)CCN(Cc2cnc(-c3ccccc3C)nc2)CC1,–,"inconclusive: 35.5 µM [inhibitor, single point]"
Cc1cccc(NC(=S)NCc2cccs2)c1C,inactive: -5.68%,–
COc1ccccc1CNC(=O)C1CCC(CNc2c(N3CCOCC3)c(=O)c2=O)CC1 (stereo unspecified),–,"inconclusive: 35.5 µM [inhibitor, single point]"
COc1ccc(-n2nnnc2SCC(=O)c2cccc(OC)c2)cc1,–,"inconclusive: 22.4 µM [inhibitor, single point]"
O=C(NCc1ccncc1)c1cc(-c2ccc(Cl)cc2)oc1C(F)(F)F,–,"inconclusive: 11.2 µM [inhibitor, single point]"
Oc1cc(Nc2ccncc2)cc2cccnc12,–,"inconclusive: 15.8 µM [inhibitor, single point]"
CC(C)NC(=O)c1ccc2c(=O)n(CC3CCCO3)c(=S)[nH]c2c1 (stereo unspecified),–,"inconclusive: 20 µM [inhibitor, single point]"
CCOC(=O)N1CCC(NC(=O)c2ccc3c(c2)N(Cc2ccccc2)CCS3)CC1,inactive: 6.17%,–
COc1cccc(-c2nc(CS(=O)(=O)CC(=O)NCCN3CCOCC3)c(C)o2)c1,inactive: 0.969%,–
Cc1cccc(C)c1OCc1nnc(SCC(=O)NCc2ccccc2)o1,inactive: 0.0927%,–
CCOC(=O)c1ccc(NC(=O)c2ccc3c(c2)c(C)c(C)n3Cc2ccc(F)cc2)cc1,–,"inconclusive: 4.47 µM [inhibitor, partial curve, poor fit]"
C/C(=N\NC(=O)C(C)Oc1ccc([N+](=O)[O-])cc1)c1ccccn1 (stereo unspecified),–,"inconclusive: 7.08 µM [inhibitor, partial curve, poor fit]"
CC(C)(C)c1ccc(C(O)c2ncc(-c3cccc(F)c3)[nH]2)cc1 (stereo unspecified),–,"inconclusive: 12.6 µM [inhibitor, single point]"
COC(=O)c1ccc(NCc2cc(O)ccc2O)cc1O,–,"inconclusive: 35.5 µM [inhibitor, single point]"
NC(=O)CC(NC(=O)Cc1cccc2ccccc12)c1ccc(NC2CCCC2)c([N+](=O)[O-])c1 (stereo unspecified),inactive: -10.5%,–
CCN1CCN(CCNC(=O)c2ccc(CS(=O)(=O)c3c(Cl)cccc3Cl)o2)CC1,–,"inconclusive: 0.794 µM [inhibitor, full curve, poor fit]"
Clc1ccc(C2=NNC(=NCc3ccc4c(c3)OCO4)SC2)cc1,–,active: 15.8 µM
Cc1ccc(N=Nc2ccc(O)c(P(=O)(c3ccccc3)c3ccccc3)c2)cc1,–,"inconclusive: 35.5 µM [inhibitor, single point]"

SMILES,"activity, negative = inhibition",Potency
CCc1nnc(NS(=O)(=O)c2ccc(NC(=S)NC(=O)/C=C/c3ccccc3)cc2)s1,–,"inconclusive: 35.5 µM [inhibitor, single point]"
Cc1ccccc1NC(=S)N(CCCN1CCOCC1)Cc1ccccn1,–,"inconclusive: 3.55 µM [inhibitor, single point]"
CC(C)C[C@H]1CN([C@@H](Cc2ccccc2)CN2CCC[C@@H]2CN2C(=O)C(=O)NC[C@@H]2Cc2ccc(O)cc2)C(=O)C(=O)N1CCc1ccccc1,–,"inconclusive: 10 µM [inhibitor, partial curve]"
Cc1ccc(-c2nc3ccccn3c2Nc2c(C)cccc2C)o1,–,"inconclusive: 12.6 µM [inhibitor, partial curve]"
CCc1nc2c(OCc3ccc(Cl)cc3Cl)cccn2c1N(C)C(=O)C1CC1,–,"inconclusive: 11.2 µM [inhibitor, partial curve]"
COc1ccc(-c2nc3c4ccccc4ccn3c2CC2CCCCC2)cc1OC,inactive: -26.3%,–
Cc1ccc(NS(=O)(=O)c2ccc3[nH]c4c(c3c2)CCCC4)c(C)c1,–,"inconclusive: 35.5 µM [inhibitor, single point]"
Cc1ccc2nc(-c3ccccc3)c(CN3CCN(c4ccccc4F)CC3)n2c1,inactive: 11.8%,–
COC(=O)[C@@]12OC[C@]34[C@H]([C@@H](O)[C@@H]1O)[C@@]1(C)C(=O)C(O[C@@H]5OC(CO)[C@@H](O)[C@@H](O)[C@@H]5O)=C[C@@H](C)[C@@H]1C[C@H]3OC(=O)[C@H](OC(=O)/C=C(\C)C(C)(C)OC(C)=O)[C@@H]24 (stereo partly specified),–,"inconclusive: 35.5 µM [inhibitor, partial curve, poor fit]"
CCCCCc1cc(=O)oc2c(C(CCN(CC)CC)c3ccc(N(C)C)cc3)c(OC)cc(OC)c12 (stereo unspecified),–,"inconclusive: 35.5 µM [inhibitor, single point]"
COc1ccc(C(=O)COC(=O)C(CCSC)NS(=O)(=O)c2ccc(Cl)cc2)cc1 (stereo unspecified),inactive: -3.04%,–
Cc1cc(N2CCN(C)CC2)nc2ccc(NC(=O)CCC(=O)NCCC(C)C)cc12,inactive: 5.36%,–
COc1ccc(-c2n[nH]c(=S)n2-c2ccc3c(c2)OCCO3)cc1,inactive: -13.2%,–
Cc1ccc(NC(=S)NCCN(C2CCCCC2)C2CCCC2)cc1C,–,"inconclusive: 15.8 µM [inhibitor, single point]"
O=C(c1ccccc1O)N1N=C(C(F)(F)F)CC1(O)c1ccc([N+](=O)[O-])cc1 (stereo unspecified),–,"inconclusive: 20 µM [inhibitor, single point]"
c1ccc(Cc2c(-c3ccco3)nc3c4ccccc4ccn23)cc1,–,"inconclusive: 12.6 µM [inhibitor, partial curve, poor fit]"
CCOc1ccccc1N1CC(c2nc3ccccc3n2CCOc2ccc(OC)cc2)CC1=O (stereo unspecified),–,"inconclusive: 14.1 µM [inhibitor, partial curve, poor fit]"
CCCCCCN1C[C@H](n2cc(C3CC3)nn2)[C@@H](O)C[C@@H]1c1ccc(OC)cc1,–,"inconclusive: 35.5 µM [inhibitor, single point]"
CCCCn1c(N)c(N(CC(C)C)C(=O)c2ccc(S(=O)(=O)N3CCCCCC3)cc2)c(=O)[nH]c1=O,inactive: -8.75%,–
COc1ccc(CNC(=O)c2cc(-c3cccs3)nc3ccccc23)c(OC)c1,inactive: -9.79%,–
